Measured values published in the RNAGym collection of RNA variant scans (doi:10.7554/elife.90254).
The source gives no read counts; variants with many changes may rest on few reads.

B1: LINE1-full (parent)
chain: UACGUAGGUGGUUUUCCCCUGAUAGUGCUAAGGGGGCCUGGAAGUUUGGACUGGGCAGAGCUCAACACAGCGUGGCAAAGUGGCUGUGGCUAGACUGCCUCUCUGGAUUCCUCGUCACUCAGCAGGGCAUCUCUGAGAGAAAUGCC

Variants of: B1
Assay: self-cleavage, relative activity (ratio to wild type); higher = more cleavage; in vitro, sequencing; the parent is a self-cleaving ribozyme

Variant | self-cleavage
U1C U102A U119A A129U | 0.98
A2G A30G G33C U46C A77U A79G U112C | 0
U1C A64G U81C | 0.41
A2G A24U A77U | 1.49
U1C A78U U96C A138G | 0.2
U1C U47A A67G | 0.13
U1C A22G A30G A42U U143A | 1.13
U1C U12G A42U U96C A141G | 0.1
U1C U29C A57G U91C | 0.77
A2G U12C U29C A140G | 0.64
U1C A94G U143A | 0.14
U1A U39A U73A A78G | 1.53
A2G G34A U52A U119C U143C | 0.98
U1C U100A A107G | 0.9
U1C A2G U132C A141G | 1.29
A2G A59U U108C | 0.85
U1C U12C U119C | 1.6
U1C U15A A59C | 0.31
U1C U52C U62C | 0
U1C U87C U112C | 0.15
A2G A65U A124G | 0.11

Variant | self-cleavage
U1C A43C U132C A140G | 0.44
U1A A64U U112C | 0.51
U1C U15A U46C A69U | 0.08
U1C A59G U109C C113A | 0.16
U1C A6U G54U A78G | 0.34
U1C G21A G88A U104A | 0.02
U1A U87A U102A C113U | 0.08
U1A A42G A57G | 0.38
U1C U9C U23A U62C G75A | 0.08
A2C U26A G93A U96C A138G U143C | 0.08
U1C U45C C99A | 0.69
U1A A69U U109C U130C G144A | 0.17
U1C U29C A94U A138G | 0.41
A2G A30U A141G | 0.59
A2G U5C A31U A77U U87A A124G A129G | 0.48
A2G A69G C99U | 0
U1C A64C A117G | 0.15
U1A A43U A57G U115C | 1.02
A2G A65G C76U U134C U143C | 0.34
A2G A22G A43G G48A U96C | 0.33
U1C A2G A43G G82A | 0.96

Variant | self-cleavage
U1C A117C G127U | 1.37
U1C U62C G126U | 0.03
A2C U87G U143A | 0.38
A2G U12C U39C A92U | 0.66
U1G C101A U132C | 0.84
U1C A6G U20C G74A U85C | 0.52
U1C C19U A67U U112C A124U U134A A142G | 0.05
A2G A107G A141G | 1.67
U1C U13C U23C A141G | 0.73
U1A U9C U45C A79G U130C | 0
U1C U73A U134C A138G | 0
A2G A6G U13C A140G | 0.71
A2G A31U C118A | 1.08
U1C G21A C51U U109C U132C | 0.71
U1C C61U A141G | 0.05
U1C U46C U81G | 0.55
U1C U45C A129G A142U | 1.15
U1C A31G U102A | 1.82
A2G C71U U130A | 0.64
A2G U12A A67G | 0.57
U1C U13C U62C A140G | 0

Variant | self-cleavage
U1A A77U A79G U108C | 0.34
A2G U9A C38U G106C | 0.65
A2G A22G A77G | 0
A2G A79G U119C | 0.71
U1C U91C A92U U115C | 0
U1C U5C G8U U109C C110U U143C | 1.05
U1C U9C G106A | 2.04
U1C U15C G32U U47C | 1.41
U1C A43G U73C U104A | 0.62
U1C C18U U85A | 0.02
U1C A64G U108A U115C U130A A141G | 0.48
U1C C17U A65G | 0.15
A2G A22U U26C U115C U130C | 1.31
U1C A30G G93U | 0.08
U1C A2G U39C A124G A129U C131U | 1.31
A2G C56U U73C U115C | 0.82
U1C U15C U130C U134A A138G | 1.21
U1C U39C U73A U143C | 0.34
U1A A31U U62C | 0
U1C U47C A79U | 1.47
